# The list shows a part of the results.
# Experiments:
# Assay in all cases: glycan array binding signal (z-score within array); higher = stronger binding
# Settings in all cases: glycan notation: IUPAC condensed, linker removed
# Gal(a1-2)Gal = target: Gal(a1-2)Gal
# Outline: (§1)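 Columns mapping to the same glycan were averaged after glycan names were converted to IUPAC-condensed notation. The data come from 3228 arrays in the Consortium for Functional Glycomics database, limited to those with an available protein sequence. Binding is reported as a within-array Z-score averaged across arrays of one protein sequence and across linkers.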
# Gal(a1-3)Gal = target: Gal(a1-3)Gal
# Outline: as §1
# Gal(a1-3)Gal(b1-3)GlcNAc = target: Gal(a1-3)Gal(b1-3)GlcNAc
# Outline: as §1
# Gal(a1-3)Gal(b1-4)Glc = target: Gal(a1-3)Gal(b1-4)Glc
# Outline: as §1
# Gal(a1-3)Gal(b1-4)GlcNAc = target: Gal(a1-3)Gal(b1-4)GlcNAc
# Outline: as §1
# [1] = target: Gal(a1-3)Gal(b1-4)[Fuc(a1-3)]GlcNAc
# Outline: as §1
# [2] = target: Gal(a1-3)Gal(b1-4)[Fuc(a1-3)]GlcNAc(b1-2)Man(a1-3)[Gal(a1-3)Gal(b1-4)[Fuc(a1-3)]GlcNAc(b1-2)Man(a1-6)]Man(b1-4)GlcNAc(b1-4)GlcNAc
# Outline: as §1
# Gal(a1-3)GalNAc = target: Gal(a1-3)GalNAc
# Outline: as §1
# [3] = target: Gal(a1-3)[Gal(a1-4)]Gal(b1-4)GlcNAc
# Outline: as §1
# Gal(a1-4)Gal(b1-4)Glc = target: Gal(a1-4)Gal(b1-4)Glc
# Outline: as §1
# Gal(a1-4)Gal(b1-4)GlcNAc = target: Gal(a1-4)Gal(b1-4)GlcNAc
# Outline: as §1
# [4] = target: Gal(a1-4)Gal(b1-4)GlcNAc(b1-3)Gal(b1-4)Glc
# Outline: as §1
# Gal(a1-4)GlcNAc = target: Gal(a1-4)GlcNAc
# Outline: as §1
# Gal(a1-6)Glc = target: Gal(a1-6)Glc
# Outline: as §1
# Gal(b1-2)Gal = target: Gal(b1-2)Gal
# Outline: as §1
# Gal(b1-3)Gal = target: Gal(b1-3)Gal
# Outline: as §1
# Gal(b1-3)Gal(b1-4)GlcNAc = target: Gal(b1-3)Gal(b1-4)GlcNAc
# Outline: as §1
# [5] = target: Gal(b1-3)Gal(b1-4)GlcNAc(b1-2)Man(a1-3)[Gal(b1-3)Gal(b1-4)GlcNAc(b1-2)Man(a1-6)]Man(b1-4)GlcNAc(b1-4)GlcNAc
# Outline: as §1
# Gal(b1-3)GalNAc = target: Gal(b1-3)GalNAc
# Outline: as §1
# [6] = target: Gal(b1-3)GalNAc(a1-3)[Fuc(a1-2)]Gal(b1-4)Glc
# Outline: as §1
# [7] = target: Gal(b1-3)GalNAc(a1-3)[Fuc(a1-2)]Gal(b1-4)GlcNAc
# Outline: as §1
# [8] = target: Gal(b1-3)GalNAc(b1-3)Gal(a1-4)Gal(b1-4)Glc
# Outline: as §1
# [9] = target: Gal(b1-3)GalNAc(b1-4)Gal(b1-4)Glc
# Outline: as §1
# [10] = target: Gal(b1-3)GalNAc(b1-4)[Neu5Ac(a2-3)]Gal(b1-4)Glc
# Outline: as §1
# Gal(b1-3)GlcNAc = target: Gal(b1-3)GlcNAc
# Outline: as §1
# [11] = target: Gal(b1-3)GlcNAc(b1-2)Man(a1-3)[Gal(b1-3)GlcNAc(b1-2)Man(a1-6)]Man(b1-4)GlcNAc(b1-4)GlcNAc
# Outline: as §1
# [12] = target: Gal(b1-3)GlcNAc(b1-2)Man(a1-3)[Gal(b1-3)GlcNAc(b1-2)Man(a1-6)]Man(b1-4)GlcNAc(b1-4)[Fuc(a1-6)]GlcNAc
# Outline: as §1
# [13] = target: Gal(b1-3)GlcNAc(b1-3)Gal(b1-3)GlcNAc
# Outline: as §1
# [14] = target: Gal(b1-3)GlcNAc(b1-3)Gal(b1-4)Glc
# Outline: as §1
# [15] = target: Gal(b1-3)GlcNAc(b1-3)Gal(b1-4)GlcNAc
# Outline: as §1
binder,measurement,setting,value
"Eap (Staphylococcus aureus), A0A7L5PYT7 (protein) MKFKSLITTTLALGVLASTGANFNNNEAAAAAKPLDKSSSSLHHGYSKVHVPYAITVNGTSQNILSSLTFNKNQNISYKDLEDRVKSVLKSDRGISDIDLRLSKQAKYTVYFKNGTKKVIDLKAGIYTADLINTSEIKAININVDTKKQVEDKKKDKANYQVPYTITVNGTSQNILSNLTFNKNQNISYKDLEDKVKSVLESNRGITDVDLRLSKQAKYTVNFKNGTKKVIDLKSGIYTANLINSSDIKSININVDTKKHIENKAKRNYQVPYSINLNGTSTNILSNLSFSNKPWTNYKNLTSQIKSVLKHDRGISEQDLKYAKKAYYTVYFKNGGKRILQLNSKNYTANLVHAKDVKRIEITVKTGTKAKADRYVPYTIAVNGTSTPILSDLKFTGDPRVGYKDISKKVKSVLKHDRGIGERELKYAKKATYTVHFKNGTKKVININSNISQLNLLYVQDIKKIDIDVKTGTKAKADSYVPYTIAVNGTSTPILSKLKISNKQLISYKYLNDKVKSVLKSERGISDLDLKFAKQAKYTVYFKNGKKQVVNLKSDIFTPNLFSAKDIKKIDIDVKQYTKSKKNK",glycan array binding signal (z-score),Gal(a1-2)Gal,0.159
same,glycan array binding signal (z-score),Gal(a1-3)Gal,0.658
same,glycan array binding signal (z-score),Gal(a1-3)Gal(b1-3)GlcNAc,-0.194
same,glycan array binding signal (z-score),Gal(a1-3)Gal(b1-4)Glc,0.101
same,glycan array binding signal (z-score),Gal(a1-3)Gal(b1-4)GlcNAc,-0.001
same,glycan array binding signal (z-score),[1],-0.392
same,glycan array binding signal (z-score),[2],-0.414
same,glycan array binding signal (z-score),Gal(a1-3)GalNAc,0.156
same,glycan array binding signal (z-score),[3],-0.767
same,glycan array binding signal (z-score),Gal(a1-4)Gal(b1-4)Glc,-0.577
same,glycan array binding signal (z-score),Gal(a1-4)Gal(b1-4)GlcNAc,0.283
same,glycan array binding signal (z-score),[4],-0.4
same,glycan array binding signal (z-score),Gal(a1-4)GlcNAc,0.1
same,glycan array binding signal (z-score),Gal(a1-6)Glc,0.133
same,glycan array binding signal (z-score),Gal(b1-2)Gal,-0.038
same,glycan array binding signal (z-score),Gal(b1-3)Gal,0.512
same,glycan array binding signal (z-score),Gal(b1-3)Gal(b1-4)GlcNAc,0.18
same,glycan array binding signal (z-score),[5],-0.547
same,glycan array binding signal (z-score),Gal(b1-3)GalNAc,-0.063
same,glycan array binding signal (z-score),[6],-0.374
same,glycan array binding signal (z-score),[7],-0.358
same,glycan array binding signal (z-score),[8],-0.22
same,glycan array binding signal (z-score),[9],-0.183
same,glycan array binding signal (z-score),[10],-0.709
same,glycan array binding signal (z-score),Gal(b1-3)GlcNAc,-0.449
same,glycan array binding signal (z-score),[11],-0.347
same,glycan array binding signal (z-score),[12],-0.453
same,glycan array binding signal (z-score),[13],-0.471
same,glycan array binding signal (z-score),[14],-0.383
same,glycan array binding signal (z-score),[15],-0.525
